Measured values published in the supplement of paper PMC3334620.
In all, about 33,000 sequences were measured (“E-score (-0.5 to 0.5)”: median about -0.016, highest 2% from about 0.31 on). The list shows a part of the results.

molecular target: Cst6 (UniProt P40535); assay: PBM E-score (8-mer binding enrichment) (E-score (-0.5 to 0.5)); higher = stronger / more preferred TF binding; most listed sequences are background and not binding sites; conditions: protein concentration: 200 nM; construct: GST-DNA-binding domain
Outline: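 Universal all-10-mer Agilent arrays, fresh or stripped once, were converted to double-stranded form by primer extension. GST-tagged yeast transcription factors from PURExpress in vitro transcription/translation, full-length or DNA-binding domain only, were applied at about 100-200 nM and detected with fluorescent anti-GST. After masliner normalisation, the Universal PBM Analysis Suite scored each ungapped eight-base word together with its reverse complement by E-score.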

Sequence | PBM E-score
GTGCACTA | -0.0162
GCTGTCAA | -0.0289
AAGGAAGG | -0.14
TCAGAACA | 0.158
CACTAGTC | -0.147
CCCACGGG | -0.214
ACCAGTGC | -0.193
AAGTGAGT | -0.106
CGGTAAGA | -0.0608
AATCGGAT | 0.148
CCAGTCGA | -0.177
GGGAACGA | -0.224
AGTCTTCG | -0.0386
GATCTACA | 0.041
ACAGACCT | -0.0625
ACGGTTGA | 0.0328
AGTACCCG | -0.115
AAAATTCA | 0.304
CAAAGGTC | -0.136
ACCCTGGA | -0.368
AGGGCAGA | -0.248
TCTACCAA | -0.0399
ATCGAGCG | 0.0446
CCCTGTCA | -0.0501
GGTTGTTA | 0.18

Sequence | PBM E-score
CGAACCAG | 0.0173
AATGCAAT | -0.03
AGTAAGAT | 0.137
AACTCTCA | 0.0558
CTCCTGGC | -0.195
GACTGGAA | -0.103
CCCACAAA | 0.178
CTTACGGA | -0.145
CGGAGAAG | -0.31
AAATAGTG | 0.217
CATCAAAC | 0.0468
GGGTTGGA | -0.206
CAGTGGGA | -0.182
AAAGCGGT | -0.114
ATGTTCGC | -0.0426
GATCTCTA | -0.0783
CCTTCGAC | -0.189
ACTTAACG | -0.0323
CACGCTGC | -0.246
CAAGAGGC | 0.0779
AGGTCCAC | -0.321
GAGCGGCC | -0.126
ACAAGCGA | 0.00814
CCTGATAC | 0.0914
CAGTGTTC | -0.0383

Sequence | PBM E-score
AAATCTGT | 0.0829
AAAATAGT | 0.186
ATCTCGTC | 0.15
CCACTGCG | -0.0063
AGCCCAAG | -0.213
GCTGCCTA | -0.062
ACGGGTGC | -0.0491
AAATCTAC | 0.169
CAATTATA | 0.0794
CGCCTTTA | 0.0883
CGGTAGTA | -0.0951
GCTTGTGA | -0.0634
CCAGTCTA | -0.227
ACACCTAG | -0.262
CGGCACGA | 0.21
CACCTATG | -0.00707
ACCTGTCA | -0.0473
GCGTGCTA | -0.194
CTGCTCTA | 0.075
ATAGATGG | -0.129
CATGTTCC | -0.0952
CCCGCCAC | 0.0116
AAAGGGCG | 0.0973
TACGCCAA | -0.00893
CTTCGTCA | 0.336

Sequence | PBM E-score
CGATACAC | -0.0629
CGCCGAGA | -0.151
ATAAATCC | 0.0264
CCCGATTC | -0.0826
AACAAAGT | 0.133
ATTTGAAC | 0.106
ACACTGAC | 0.0541
AGTACTCC | -0.258
CGTCAGCA | 0.22
ACACGGGC | -0.234
AATTTTCT | 0.194
AACAGTCT | -0.208
GATCTAAC | 0.131
AATATATG | 0.171
TGCCCCCA | -0.224
CCAGTTGC | -0.135
ATCATTAA | 0.28
ACAGCGAA | 0.0424
TGAGAGCA | -0.109
CCCCTCCG | -0.209
AACCAATA | 0.195
AAGTGTTG | 0.214
AACGAACC | 0.208
TACAGTCA | 0.139
ACGAAGAC | -0.0333

Sequence | PBM E-score
CGCTCTGA | -0.0554
CCCCGGTC | -0.303
ACCGTTCG | 0.0621
CATCAGCA | 0.177
CGTGGCTA | -0.0776
GATCCATC | -0.0701
CATTGGGA | -0.116
AATCAATA | 0.206
GGCTCCAC | -0.228
GCGAGGAA | -0.0544
TATGTTGA | 0.127
CCAGGACA | -0.283
GACGTCCA | 0.276
GATGGTCC | -0.184
ACGCAATA | 0.349
GCTCGAAC | 0.00579
AGTCAAGG | -0.108
ACACTTAC | 0.188
CCCCGAGG | -0.33
CGGTTAGA | -0.189
AACGCCCG | -0.0175
CATGAAGC | -0.187
ACATTGCA | -0.0281
ACGTTCTG | -0.00291
ATCCGCAT | 0.112

Sequence | PBM E-score
CTAGAACC | -0.127
GGGCCGAA | -0.206
AAACTTGT | 0.174
CGATCTCA | -0.0707
ATAAAGCG | 0.165
AGTTCGCG | 0.0186
AAGCAACA | 0.0538
CAGGGTGC | -0.327
CCGTCCGC | -0.184
GATGAGAA | 0.0108
GTACCATA | -0.00054
AGAGGTTG | -0.193
AAATAGAC | 0.0409
CGTACGTC | 0.31
GTCCAAAC | -0.0363
AACAGAGG | -0.0721
ACTCACAC | -0.127
AGGACCCG | -0.266
ATTTCGTG | 0.127
GAACCTTA | -0.04
AGTAATGG | 0.0119
ATGGTTGG | 0.0505
AAAACCGT | 0.143
AATCGGAA | -0.00349
AGCTTCCT | -0.108

Sequence | PBM E-score
GGGGAGGA | -0.23
CTTCTACA | -0.0622
CGCCAACA | -0.0263
CTTGTAAA | 0.155
GCAGGGAA | -0.101
ATGTGAAA | 0.15
ACCACCAA | -0.0877
CTCAGTGA | 0.0623
AAGTGCTC | -0.0422
GCTGTAGA | -0.0867
ACAATTCT | 0.168
ATGATCAG | 0.045
GAGTATCA | -0.0698
TCGCATCA | 0.267
CAGTAGTA | -0.0925
GGGTTCAC | -0.0513
ATGCTGTA | -0.0705
GAGTATCC | -0.221
CATAGACC | -0.13
GGGATCTA | -0.123
CTAACAGC | -0.00671
ATAGCCGA | 0.115
TCGTCCCA | -0.0394
AACGCAGT | -0.129
ATTTGTAA | 0.239

Sequence | PBM E-score
CAGCCCTA | 0.0115
AATATATA | 0.239
CGATATAC | -0.0576
GGTCCCTA | -0.126
ACCGGAGA | -0.155
GCCCTCAA | -0.213
CTGTCGTA | 0.116
CTCGCCGC | 0.00702
CGTAGAGA | -0.026
AACCCGAG | -0.153
CTCTAGCC | -0.102
ATCCAGGC | -0.18
GGAAGCCC | -0.331
CGCGTTGA | 0.143
CCGAAGAC | -0.079
GCATCGGC | -0.0851
GGCGGAGA | -0.0758
GTCTAAGA | 0.102
GTAGGTTA | 0.0321
AGGAGACA | -0.0509
CTGGGTTC | -0.123
GTAAGAGA | 0.0594
ACCTTTAT | -0.0669
GCGTACCC | -0.215
CAATTCGC | 0.14

Sequence | PBM E-score
CACTGCGA | -0.0986
ACGTGCTA | 0.116
CTTCTCAA | -0.0253
GTAATGAC | 0.377
GTTTTACA | -0.00306
CTCTATTC | -0.157
ATCCACGC | -0.181
TGTTTGAA | 0.108
AGAATTCG | 0.0535
GGGGGTCA | -0.424
ACGTGGTG | 0.0475
AGTTTTAC | 0.0527
CTTGACCA | -0.223
CGCGTTGC | 0.0316
ATGGCACC | -0.107
CGGGTGCC | 0.042
ACGCATCA | 0.236
CAGTTGAA | -0.0554
ACTGTAAC | 0.0568
